# The list shows a part of the results.
# B1: PX15618A-bth-503-24-503 (Bacteroides thetaiotaomicron) (protein)
# chain: NKSEDKLSGDDFWAQGNETNAEAFLLSIYNSFRNATMSQRPFLTYSGDMRCAPITAYSTGDKYVAYLANNDMGELRNTYPDDARGGLIMQWDVFYTAIQDANILLAEIDKVPGMDELKRSRFKAEAIFMRSLSYFFIVRAFGDVPYYTNAYNEAPLPRTNMVIVLQNCLADLQPLLDDDPGAEVLPWSYSSYSSKGIRASRGSVIALMMHINLWLVQFDAQNKEQYYRNVVSLGEELERNNGAYSLLDINRSSVIFAGGSDEGLFEIAQNINFNEIFMMNAKFSDNVSYSCLNKSMPLFCYSGDYLMTLFPMYEDDARKELWFDEKIYSTSVSSSAPKEIKKFWNIDTYGNGTITSNSGNQIVFRYAGALLLYAEALAALGTNDTKACELLNRVRNRAHASEINTSGSELMDAIFWERCRELIGEGHYYYDLVRTGKVYNRNYCMNPMTRTNFNVGAWTWPIHRNALKNNTQIGLNLFWE
# What was measured:
# Experiment in all cases: glycan array binding signal (z-score within array); higher = stronger binding
# Conditions in all cases: glycan notation: IUPAC condensed, linker removed
# [1] = biological target: Fuc(a1-2)[Gal(a1-3)]Gal(b1-4)GlcNAc(b1-2)Man(a1-3)[Fuc(a1-2)[Gal(a1-3)]Gal(b1-4)GlcNAc(b1-2)Man(a1-6)]Man(b1-4)GlcNAc(b1-4)[Fuc(a1-6)]GlcNAc
# Method in brief: (§1)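 From the Consortium for Functional Glycomics database, 3228 arrays were curated, keeping only those whose protein sequence was available. Binding is given as a within-array Z-score averaged across arrays sharing a protein sequence and across linkers. Negative Z-scores can be read as non-binding.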
# [2] = biological target: Fuc(a1-2)[Gal(a1-3)]Gal(b1-4)GlcNAc(b1-3)GalNAc
# Method in brief: as §1
# [3] = biological target: Fuc(a1-2)[Gal(a1-3)]Gal(b1-4)GlcNAc(b1-3)[Fuc(a1-2)[Gal(a1-3)]Gal(b1-4)GlcNAc(b1-6)]GalNAc
# Method in brief: as §1
# [4] = biological target: Fuc(a1-2)[Gal(a1-3)]Gal(b1-4)GlcNAc(b1-6)GalNAc
# Method in brief: as §1
# [5] = biological target: Fuc(a1-2)[Gal(a1-3)]Gal(b1-4)[Fuc(a1-3)]Glc
# Method in brief: as §1
# [6] = biological target: Fuc(a1-2)[Gal(a1-3)]Gal(b1-4)[Fuc(a1-3)]GlcNAc
# Method in brief: as §1
# [7] = biological target: Fuc(a1-2)[Gal(a1-3)]Gal(b1-4)[Fuc(a1-3)]GlcNAc(b1-3)GalNAc
# Method in brief: as §1
# [8] = biological target: Fuc(a1-2)[Gal(a1-4)]Gal(b1-4)GlcNAc
# Method in brief: as §1
# [9] = biological target: Fuc(a1-2)[GalNAc(a1-3)]Gal
# Method in brief: as §1
# [10] = biological target: Fuc(a1-2)[GalNAc(a1-3)]Gal(b1-3)GalNAc(a1-3)[Fuc(a1-2)]Gal(b1-4)GlcNAc
# Method in brief: as §1
# [11] = biological target: Fuc(a1-2)[GalNAc(a1-3)]Gal(b1-3)GalNAc(b1-3)Gal(a1-4)Gal(b1-4)Glc
# Method in brief: as §1
# [12] = biological target: Fuc(a1-2)[GalNAc(a1-3)]Gal(b1-3)GlcNAc
# Method in brief: as §1
# [13] = biological target: Fuc(a1-2)[GalNAc(a1-3)]Gal(b1-3)GlcNAc(b1-2)Man(a1-3)[Fuc(a1-2)[GalNAc(a1-3)]Gal(b1-3)GlcNAc(b1-2)Man(a1-6)]Man(b1-4)GlcNAc(b1-4)GlcNAc
# Method in brief: as §1
# [14] = biological target: Fuc(a1-2)[GalNAc(a1-3)]Gal(b1-3)GlcNAc(b1-2)Man(a1-3)[Fuc(a1-2)[GalNAc(a1-3)]Gal(b1-3)GlcNAc(b1-2)Man(a1-6)]Man(b1-4)GlcNAc(b1-4)[Fuc(a1-6)]GlcNAc
# Method in brief: as §1
# [15] = biological target: Fuc(a1-2)[GalNAc(a1-3)]Gal(b1-3)GlcNAc(b1-3)GalNAc
# Method in brief: as §1
# [16] = biological target: Fuc(a1-2)[GalNAc(a1-3)]Gal(b1-3)GlcNAc(b1-6)GalNAc
# Method in brief: as §1
# [17] = biological target: Fuc(a1-2)[GalNAc(a1-3)]Gal(b1-4)Glc
# Method in brief: as §1
# [18] = biological target: Fuc(a1-2)[GalNAc(a1-3)]Gal(b1-4)GlcNAc
# Method in brief: as §1
# [19] = biological target: Fuc(a1-2)[GalNAc(a1-3)]Gal(b1-4)GlcNAc(b1-2)Man
# Method in brief: as §1
# [20] = biological target: Fuc(a1-2)[GalNAc(a1-3)]Gal(b1-4)GlcNAc(b1-2)Man(a1-3)[Fuc(a1-2)[GalNAc(a1-3)]Gal(b1-4)GlcNAc(b1-2)Man(a1-6)]Man(b1-4)GlcNAc(b1-4)GlcNAc
# Method in brief: as §1
# [21] = biological target: Fuc(a1-2)[GalNAc(a1-3)]Gal(b1-4)GlcNAc(b1-2)Man(a1-3)[Fuc(a1-2)[GalNAc(a1-3)]Gal(b1-4)GlcNAc(b1-2)Man(a1-6)]Man(b1-4)GlcNAc(b1-4)[Fuc(a1-6)]GlcNAc
# Method in brief: as §1
# [22] = biological target: Fuc(a1-2)[GalNAc(a1-3)]Gal(b1-4)GlcNAc(b1-3)Gal(b1-4)GlcNAc
# Method in brief: as §1
# [23] = biological target: Fuc(a1-2)[GalNAc(a1-3)]Gal(b1-4)GlcNAc(b1-3)Gal(b1-4)GlcNAc(b1-3)Gal(b1-4)GlcNAc
# Method in brief: as §1
# [24] = biological target: Fuc(a1-2)[GalNAc(a1-3)]Gal(b1-4)GlcNAc(b1-3)GalNAc
# Method in brief: as §1
# [25] = biological target: Fuc(a1-2)[GalNAc(a1-3)]Gal(b1-4)GlcNAc(b1-3)[Fuc(a1-2)[GalNAc(a1-3)]Gal(b1-4)GlcNAc(b1-6)]GalNAc
# Method in brief: as §1
# [26] = biological target: Fuc(a1-2)[GalNAc(a1-3)]Gal(b1-4)GlcNAc(b1-6)GalNAc
# Method in brief: as §1
# [27] = biological target: Fuc(a1-2)[GalNAc(a1-3)]Gal(b1-4)[Fuc(a1-3)]GlcNAc
# Method in brief: as §1
# [28] = biological target: Fuc(a1-2)[GalNAc(a1-3)]Gal(b1-4)[Fuc(a1-3)]GlcNAc(b1-3)GalNAc
# Method in brief: as §1
# [29] = biological target: Fuc(a1-2)[GalNAc(a1-4)]Gal(b1-4)GlcNAc
# Method in brief: as §1
# [30] = biological target: Fuc(a1-2)[GalNAc(b1-3)]Gal
# Method in brief: as §1
binder,measurement,setting,value
B1,glycan array binding signal (z-score),[1],-0.198
same,glycan array binding signal (z-score),[2],-0.58
same,glycan array binding signal (z-score),[3],-0.151
same,glycan array binding signal (z-score),[4],0.235
same,glycan array binding signal (z-score),[5],-0.33
same,glycan array binding signal (z-score),[6],-0.363
same,glycan array binding signal (z-score),[7],-0.391
same,glycan array binding signal (z-score),[8],0.318
same,glycan array binding signal (z-score),[9],-0.153
same,glycan array binding signal (z-score),[10],-0.7
same,glycan array binding signal (z-score),[11],-0.307
same,glycan array binding signal (z-score),[12],-0.665
same,glycan array binding signal (z-score),[13],0.004
same,glycan array binding signal (z-score),[14],-0.46
same,glycan array binding signal (z-score),[15],-0.001
same,glycan array binding signal (z-score),[16],0.23
same,glycan array binding signal (z-score),[17],-0.32
same,glycan array binding signal (z-score),[18],-0.044
same,glycan array binding signal (z-score),[19],-0.461
same,glycan array binding signal (z-score),[20],0.939
same,glycan array binding signal (z-score),[21],-0.377
same,glycan array binding signal (z-score),[22],-0.833
same,glycan array binding signal (z-score),[23],0.336
same,glycan array binding signal (z-score),[24],-0.154
same,glycan array binding signal (z-score),[25],-0.576
same,glycan array binding signal (z-score),[26],-0.749
same,glycan array binding signal (z-score),[27],-0.159
same,glycan array binding signal (z-score),[28],1.74
same,glycan array binding signal (z-score),[29],0.616
same,glycan array binding signal (z-score),[30],0.391
